This is an account of results in a collection of fitness landscapes (doi:10.1126/science.1257360).

The other results are listed elsewhere or left out.

First the molecules themselves.
B1: PhoQ; a variant is named by its letters at X, in order, P23837 (parent)
chain: MKKLLRLFFPLSLRVRFLLATAAVVLVLSLAYGMVALIGYSVSFDKTTFRLLRGESNLFYTLAKWENNKLHVELPENIDKQSPTMTLIYDENGQLLWAQRDVPWLMKMIQPDWLKSNGFHEIEADVNDTSLLLSGDHSIQQQLQEVREDDDDAEMTHSVAVNVYPATSRMPKLTIVVVDTIPVELKSSYMVWSWFIYVLSANLLLVIPLLWVAAWWSLRPIEALAKEVRELEEHNRELLNPATTRELTSLVRNLNRLLKSERERYDKYRTTLTDLTHSLKTPLXXLQXXLRSLRSEKMSVSDAEPVMLEQISRISQQIGYYLHRASMRGGTLLSRELHPVAPLLDNLTSALNKVYQRKGVNISLDISPEISFVGEQNDFVEVMGNVLDNACKYCLEFVEISARQTDEHLYIVVEDDGPGIPLSKREVIFDRGQRVDTLRPGQGVGLAVAREITEQYEGKIVAGESMLGGARMEVIFGRQHSAPKDE

This assay covers variants of B1. The assay is described as follows: enrichment ratio after two sorts for PhoP signalling (ratio (wild type AVST 3.29)); higher = more functional. The conditions noted are these: with PhoP (E. coli).
On to ARNM, for which the enrichment ratio was no more than 0.25.

In the case of WYTE, the enrichment ratio is no more than 0.25.

Take TADP: the enrichment ratio was no more than 0.25.

In the case of WGIF, the enrichment ratio is no more than 0.25.

On to ALNP, for which the enrichment ratio is no more than 0.25.

RNRF: the enrichment ratio is no more than 0.25.

KRPW: the enrichment ratio was no more than 0.25.

Take CHYI: the enrichment ratio is no more than 0.25.

Consider NRML, for which the enrichment ratio is no more than 0.25.

With TNNY, the enrichment ratio came to 5.03.

Take IFLA: the enrichment ratio is no more than 0.25.

Take YWCA: the enrichment ratio is no more than 0.25.

As for NKMW, the enrichment ratio was no more than 0.25.

For WKVI, the enrichment ratio is no more than 0.25.

MHED: the enrichment ratio is no more than 0.25.

In the case of PFQS, the enrichment ratio is no more than 0.25.

In the case of RQYM, the enrichment ratio was no more than 0.25.

Consider EESN, for which the enrichment ratio is no more than 0.25.

Take EGVG: the enrichment ratio is no more than 0.25.

For the variant MWGH, the enrichment ratio is no more than 0.25.

IFCH: the enrichment ratio was no more than 0.25.

KMFC: the enrichment ratio was no more than 0.25.

For ICYI, the enrichment ratio was no more than 0.25.

For the variant DVAI, the enrichment ratio is no more than 0.25.

With IRWF, the enrichment ratio was no more than 0.25.

For the variant IHIR, the enrichment ratio is no more than 0.25.

As to WYKI, the enrichment ratio is no more than 0.25.

With RHRV, the enrichment ratio is no more than 0.25.

For the variant DACV, the enrichment ratio was no more than 0.25.

QCGQ: the enrichment ratio worked out at 0.634.

For the variant KSPC, the enrichment ratio was no more than 0.25.

In the case of HANF, the enrichment ratio was no more than 0.25.

Take DRMC: the enrichment ratio is no more than 0.25.

As to GFWM, the enrichment ratio was no more than 0.25.

On to GNAL, for which the enrichment ratio amounted to 7.59.

Take SRID: the enrichment ratio is no more than 0.25.

In the case of PTYS, the enrichment ratio was no more than 0.25.

As to RQPQ, the enrichment ratio was no more than 0.25.

With FFSW, the enrichment ratio is no more than 0.25.

Consider SFLW, for which the enrichment ratio is no more than 0.25.

Regarding YKIP, the enrichment ratio was no more than 0.25.

In the case of NKRS, the enrichment ratio was no more than 0.25.

On to TGGF, for which the enrichment ratio came out at 15.

On to GHPG, for which the enrichment ratio is no more than 0.25.

Consider FDTN, for which the enrichment ratio is no more than 0.25.

For the variant YQWH, the enrichment ratio was no more than 0.25.

GFMS: the enrichment ratio is no more than 0.25.

With YGTW, the enrichment ratio was no more than 0.25.

On to FQPQ, for which the enrichment ratio is no more than 0.25.

As to MVCM, the enrichment ratio turned out to be 1.44.

For the variant KVVH, the enrichment ratio was no more than 0.25.

Turning to IGGG, the enrichment ratio was no more than 0.25.

For QLEY, the enrichment ratio was no more than 0.25.

For MWEF, the enrichment ratio is no more than 0.25.

Consider RTIA, for which the enrichment ratio was no more than 0.25.

Turning to WLSI, the enrichment ratio is no more than 0.25.

As for WCIS, the enrichment ratio is no more than 0.25.

Turning to IFNT, the enrichment ratio is no more than 0.25.

Regarding TDDD, the enrichment ratio is no more than 0.25.

For the variant WHDM, the enrichment ratio is no more than 0.25.

With SNVG, the enrichment ratio stood at 3.21.

In the case of SRRG, the enrichment ratio is no more than 0.25.

Consider HDVF, for which the enrichment ratio was no more than 0.25.

Regarding RNPV, the enrichment ratio was no more than 0.25.

For the variant RGRV, the enrichment ratio is no more than 0.25.

For the variant MMNQ, the enrichment ratio is no more than 0.25.

As for YYRG, the enrichment ratio was no more than 0.25.

Turning to HGWM, the enrichment ratio is no more than 0.25.

Consider VMTY, for which the enrichment ratio is no more than 0.25.

As to LTIR, the enrichment ratio was no more than 0.25.

With YEQH, the enrichment ratio was no more than 0.25.

Regarding RNGT, the enrichment ratio was no more than 0.25.

Take PLFE: the enrichment ratio was no more than 0.25.

For TKGG, the enrichment ratio was no more than 0.25.

Turning to WHKS, the enrichment ratio is no more than 0.25.

On to HDIE, for which the enrichment ratio was no more than 0.25.

VMWQ: the enrichment ratio is no more than 0.25.

Regarding MSTW, the enrichment ratio is no more than 0.25.

With FDNG, the enrichment ratio is no more than 0.25.

With PSHN, the enrichment ratio is no more than 0.25.

Turning to GYNG, the enrichment ratio is no more than 0.25.

RFYE: the enrichment ratio was no more than 0.25.

For QTAR, the enrichment ratio was no more than 0.25.

As for DGDN, the enrichment ratio was no more than 0.25.

Turning to LIYI, the enrichment ratio was no more than 0.25.

Turning to FSQV, the enrichment ratio was no more than 0.25.

Turning to KCTS, the enrichment ratio was no more than 0.25.

As to PQWH, the enrichment ratio was no more than 0.25.

Regarding QYNH, the enrichment ratio is no more than 0.25.

Take GGCM: the enrichment ratio came out at 9.15.

Turning to EFLF, the enrichment ratio is no more than 0.25.

MAAE: the enrichment ratio was no more than 0.25.

Take FVSN: the enrichment ratio was no more than 0.25.

In the case of VRCY, the enrichment ratio is no more than 0.25.

For NDRL, the enrichment ratio is no more than 0.25.

On to MIMI, for which the enrichment ratio worked out at 1.14.

On to TYSP, for which the enrichment ratio is 0.441.

In the case of HCYL, the enrichment ratio is no more than 0.25.

Consider YFKD, for which the enrichment ratio is no more than 0.25.

On to HQAY, for which the enrichment ratio was no more than 0.25.

ACAD: the enrichment ratio was no more than 0.25.

As for HLSH, the enrichment ratio was no more than 0.25.

On to DNRA, for which the enrichment ratio is no more than 0.25.

As for SITS, the enrichment ratio was found to be 11.6.

Regarding PGGR, the enrichment ratio is no more than 0.25.

Turning to RMMN, the enrichment ratio was no more than 0.25.

Regarding SPDS, the enrichment ratio is no more than 0.25.

As to VTMW, the enrichment ratio was no more than 0.25.

Take EVAR: the enrichment ratio is no more than 0.25.

For the variant YSRC, the enrichment ratio is no more than 0.25.

Regarding GEFN, the enrichment ratio is no more than 0.25.

LEYM: the enrichment ratio is no more than 0.25.

On to WHSN, for which the enrichment ratio was no more than 0.25.

For the variant HWIQ, the enrichment ratio is no more than 0.25.

Turning to FRHT, the enrichment ratio was no more than 0.25.

Regarding SAMK, the enrichment ratio worked out at 17.9.

For the variant WMRG, the enrichment ratio is no more than 0.25.

As to AFVC, the enrichment ratio was 1.11.

Turning to DWDH, the enrichment ratio was no more than 0.25.

For the variant FWYN, the enrichment ratio was no more than 0.25.

For the variant FVLQ, the enrichment ratio is 1.95.

Consider DEAK, for which the enrichment ratio is no more than 0.25.

Turning to IPMR, the enrichment ratio was no more than 0.25.

On to ALVQ, for which the enrichment ratio came to 0.788.

For the variant SQFC, the enrichment ratio was no more than 0.25.

In the case of YSVT, the enrichment ratio is no more than 0.25.

On to LAFQ, for which the enrichment ratio was 2.23.

For GMYA, the enrichment ratio is no more than 0.25.

On to GSYE, for which the enrichment ratio was no more than 0.25.

Turning to KGCM, the enrichment ratio was no more than 0.25.

On to KLYP, for which the enrichment ratio was no more than 0.25.

For the variant WMLV, the enrichment ratio was no more than 0.25.

In the case of HFLS, the enrichment ratio is no more than 0.25.

Regarding AQEY, the enrichment ratio was no more than 0.25.

Take RRKD: the enrichment ratio was no more than 0.25.

On to WGGM, for which the enrichment ratio was no more than 0.25.

Take HWTY: the enrichment ratio is no more than 0.25.

In the case of YIGT, the enrichment ratio was no more than 0.25.

For VRCI, the enrichment ratio is no more than 0.25.

On to QYDD, for which the enrichment ratio was no more than 0.25.

Turning to GGFQ, the enrichment ratio was no more than 0.25.

Regarding KCHT, the enrichment ratio was no more than 0.25.

With PICW, the enrichment ratio is no more than 0.25.

Take SFNT: the enrichment ratio was no more than 0.25.

Turning to KYQS, the enrichment ratio is no more than 0.25.

For WFMA, the enrichment ratio is no more than 0.25.

Consider DPSR, for which the enrichment ratio was no more than 0.25.

Take FHMI: the enrichment ratio was no more than 0.25.

IAWV: the enrichment ratio was no more than 0.25.

For the variant GMTF, the enrichment ratio is 2.5.

As for RDPH, the enrichment ratio was no more than 0.25.

For IFEM, the enrichment ratio is 3.66.

Take YIRY: the enrichment ratio was no more than 0.25.

Turning to YNWV, the enrichment ratio was no more than 0.25.

For YTPE, the enrichment ratio is no more than 0.25.

As to QSAF, the enrichment ratio was no more than 0.25.

For the variant EDKD, the enrichment ratio is no more than 0.25.

As to QSIR, the enrichment ratio was no more than 0.25.

Consider DKFE, for which the enrichment ratio is no more than 0.25.

As to PDHV, the enrichment ratio was no more than 0.25.

For EFRW, the enrichment ratio was no more than 0.25.

In the case of QCAG, the enrichment ratio was no more than 0.25.

As for PFNS, the enrichment ratio is no more than 0.25.

For the variant IPKW, the enrichment ratio was no more than 0.25.

Take YDAT: the enrichment ratio was no more than 0.25.

In the case of EICP, the enrichment ratio was no more than 0.25.

KVIL: the enrichment ratio was no more than 0.25.

With TNNG, the enrichment ratio was no more than 0.25.

Consider RNVE, for which the enrichment ratio was no more than 0.25.

For HYLL, the enrichment ratio is no more than 0.25.

In the case of YPYN, the enrichment ratio is no more than 0.25.

For VLCR, the enrichment ratio is no more than 0.25.

For IWLD, the enrichment ratio was no more than 0.25.

As for HNWC, the enrichment ratio was no more than 0.25.

Turning to KRSY, the enrichment ratio is no more than 0.25.

Take NAGR: the enrichment ratio was no more than 0.25.

Turning to FWGH, the enrichment ratio was no more than 0.25.

For LCYQ, the enrichment ratio is no more than 0.25.

As to RYAD, the enrichment ratio was no more than 0.25.

On to RNFC, for which the enrichment ratio is no more than 0.25.

Take DGRG: the enrichment ratio is no more than 0.25.

Consider NESA, for which the enrichment ratio is no more than 0.25.

In the case of MAFD, the enrichment ratio is no more than 0.25.

Turning to LEMS, the enrichment ratio worked out at 8.78.

In the case of LCLC, the enrichment ratio was no more than 0.25.

Regarding MLDM, the enrichment ratio was no more than 0.25.

Turning to ETVK, the enrichment ratio was no more than 0.25.

On to QYHG, for which the enrichment ratio is no more than 0.25.

NTNM: the enrichment ratio was no more than 0.25.

In the case of NQWW, the enrichment ratio was no more than 0.25.

Take LWQG: the enrichment ratio was no more than 0.25.

Take HNPW: the enrichment ratio is no more than 0.25.

Consider RGYG, for which the enrichment ratio was no more than 0.25.

TIQE: the enrichment ratio was 15.1.

Take LHIM: the enrichment ratio was no more than 0.25.
